# Data as given in the supplement of paper PMC3334620.
# Over roughly 33,000 sequences, “E-score (-0.5 to 0.5)” has its median near -0.035; the highest 2% begin near 0.35. This is one part of the list.
# Target: T1, Pdr3 (UniProt P33200)
# T1 sequence: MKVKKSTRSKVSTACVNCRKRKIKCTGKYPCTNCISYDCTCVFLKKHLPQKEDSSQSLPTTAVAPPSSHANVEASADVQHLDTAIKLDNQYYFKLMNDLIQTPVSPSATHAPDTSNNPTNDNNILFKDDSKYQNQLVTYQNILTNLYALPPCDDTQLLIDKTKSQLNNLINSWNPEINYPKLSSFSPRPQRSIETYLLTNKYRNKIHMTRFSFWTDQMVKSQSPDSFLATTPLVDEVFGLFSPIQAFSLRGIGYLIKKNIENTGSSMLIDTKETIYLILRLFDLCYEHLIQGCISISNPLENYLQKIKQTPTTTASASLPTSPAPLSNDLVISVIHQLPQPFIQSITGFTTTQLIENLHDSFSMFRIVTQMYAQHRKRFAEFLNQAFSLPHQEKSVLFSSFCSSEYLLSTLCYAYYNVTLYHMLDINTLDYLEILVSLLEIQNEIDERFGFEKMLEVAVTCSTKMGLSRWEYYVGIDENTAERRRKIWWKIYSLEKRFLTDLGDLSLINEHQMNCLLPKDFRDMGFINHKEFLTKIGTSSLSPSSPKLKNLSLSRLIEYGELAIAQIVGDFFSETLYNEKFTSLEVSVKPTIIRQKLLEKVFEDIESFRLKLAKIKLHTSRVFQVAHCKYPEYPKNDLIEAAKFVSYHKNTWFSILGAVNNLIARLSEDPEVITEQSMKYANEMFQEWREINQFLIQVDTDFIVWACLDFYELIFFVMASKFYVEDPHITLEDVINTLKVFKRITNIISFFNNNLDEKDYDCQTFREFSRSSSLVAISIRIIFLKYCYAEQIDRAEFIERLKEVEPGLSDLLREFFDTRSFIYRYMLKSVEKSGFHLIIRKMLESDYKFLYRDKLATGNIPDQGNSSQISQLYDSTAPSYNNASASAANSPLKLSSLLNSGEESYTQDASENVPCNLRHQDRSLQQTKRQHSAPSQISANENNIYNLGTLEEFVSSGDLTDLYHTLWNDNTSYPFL
# Assay: PBM E-score (8-mer binding enrichment) (E-score (-0.5 to 0.5)); higher = stronger / more preferred TF binding; most listed sequences are background and not binding sites
# Settings: protein concentration: 200 nM; construct: GST-full length
# Description: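 Universal 'all 10-mer' protein binding microarrays (Agilent AMADID 015681) probed with GST-tagged S. cerevisiae TFs (full-length or DBD) made by in vitro transcription/translation (PURExpress), about 100-200 nM. Bound TF was detected with fluorescent anti-GST. Each ungapped 8-mer (which stands for itself and its reverse complement) is scored by the PBM enrichment score (E-score), a modified Wilcoxon-Mann-Whitney statistic from -0.5 to +0.5, computed with the Universal PBM Analysis Suite. Scale: above 0.35 generally sequence-specific binding.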
row,Sequence,PBM E-score
1,AGAACCGA,0.0498
2,GTACCCAA,-0.0916
3,CACATCTA,-0.00108
4,GACTAGTC,-0.254
5,AGTATACC,-0.0582
6,CAGAACCC,-0.0441
7,CTGCCCTC,-0.295
8,CCTCACAC,-0.202
9,ACTACTGC,-0.109
10,CGAGCTCC,0.17
11,GTTCCTAA,0.044
12,GCATGAGA,-0.0582
13,ACATTGAC,-0.0326
14,CCAACTCA,-0.0551
15,GGCACAAC,-0.0445
16,CAAAGGTA,-0.211
17,TGTTCCAA,-0.139
18,GAACCGTA,-0.0571
19,CCGCAGCG,0.161
20,GCGTAAAC,-0.0119
21,CTCGCTGA,-0.026
22,ACTTTGGC,-0.0628
23,ACTATCGA,-0.016
24,ATAAAACG,0.205
25,AGGGGTGA,-0.235

row,Sequence,PBM E-score
1,CAAACGGG,0.184
2,ATAGCGTC,-0.153
3,GCCACGCC,-0.137
4,CACTTCGA,-0.0223
5,CTACAGGC,-0.0559
6,GGTTGTAC,-9e-05
7,CAAAAATA,0.146
8,GTCGAAAC,0.0492
9,ATGAACGC,0.0678
10,TCCTATAA,-0.17
11,CAATAATG,-0.198
12,GAAGACAA,-0.0754
13,TGAAGAAA,0.0654
14,GCCTAGAA,-0.153
15,CTATCCGA,0.17
16,CCACATCC,0.0947
17,CAGACTGG,-0.237
18,CCAAATCC,0.169
19,GCGAGGGA,-0.0123
20,ACATTTCC,0.238
21,ACATGTTG,0.0079
22,GATTCAGC,0.0177
23,AGTTGCAC,-0.136
24,ATGTTAGC,-0.178
25,ACTCAATC,-0.115

row,Sequence,PBM E-score
1,TAGTTAGA,-0.154
2,CAGGTGCG,0.0828
3,AGTCGTGC,-0.228
4,AGGTCCCC,-0.0629
5,ACTGGCTC,-0.0586
6,AATCAACG,0.0182
7,ACGTTCGC,-0.135
8,CCATGAAC,0.159
9,AGAACGGC,0.106
10,TATGGACA,0.00453
11,CGAAATCG,0.164
12,CTTAGATC,-0.376
13,CTGAACAA,0.0725
14,CCTCCGAG,0.207
15,TGCAAGAA,0.0859
16,GAATGGAA,0.162
17,GGATCGGA,0.359
18,AAGGGTAA,0.0138
19,GATGGTCA,0.0334
20,AAATCAGG,-0.235
21,CCAGAGGA,0.00507
22,CCGAACGC,0.287
23,ACACGAGG,-0.218
24,AACGCGTG,-0.0323
25,AGGTTCAG,0.0188

row,Sequence,PBM E-score
1,CTTCCTCC,-0.13
2,CTTAAAAA,-0.227
3,AAGTCACC,-0.156
4,CTAAGCTA,0.00865
5,AGTCGGGC,0.0481
6,ACTGCTCC,0.22
7,GGAGCTGA,0.0619
8,CATGGACG,0.0495
9,CGCGCCGC,0.307
10,CTGTGCCA,-0.134
11,CGCTCCCG,0.175
12,ACCAACCC,-0.0153
13,ACGTCGGA,0.175
14,ACAGCTGA,-0.0273
15,AGAATTAT,0.076
16,CCCCGCAG,0.225
17,CCTCTATA,-0.199
18,ACGAAAAA,-0.196
19,GGGTCCCA,0.0605
20,CCGGCACG,0.279
21,CGGCTAAG,0.0549
22,AAAGCTAG,-0.177
23,CTCGAGGC,0.0164
24,CGAAGCCC,0.021
25,GGCCACAA,-0.0451

row,Sequence,PBM E-score
1,AAGCAGTG,-0.031
2,GAAACGGA,0.395
3,CGCAGGCC,0.109
4,CGCAGCGA,-0.00392
5,CGCGCGTC,0.207
6,ATTGTCGC,-0.00189
7,ATATGAGG,-0.0144
8,AGGTGACG,-0.166
9,AAGAGTCG,-0.0684
10,CCCGAGAA,0.333
11,ATACCCAG,-0.116
12,ATTGAACA,-0.0508
13,CACGTCAC,-0.111
14,GGGATCCA,0.222
15,CGTGTAGA,0.0113
16,CAATATAA,0.101
17,TGCGAGCA,-0.00946
18,CGTACGGC,-0.0531
19,ATATAACG,0.135
20,ACTGTATG,-0.0881
21,CGGCCAGA,0.207
22,ACGGCTAG,-0.152
23,GGTGACTA,-0.0832
24,CCTGATGC,0.0727
25,AACCCATT,0.0501

row,Sequence,PBM E-score
1,ACCCTGAT,-0.0817
2,AACGATGG,-0.127
3,ACAGAACT,0.0304
4,AATCTAAA,0.0142
5,CTGATATC,0.12
6,AGATGAGA,-0.0989
7,GCAAGGAC,0.0375
8,GCACCTGA,-0.0993
9,AAGACAAC,0.0867
10,GCGGAAAA,0.397
11,AAGTCTAG,-0.167
12,ACCATGAC,-0.0124
13,ACACAGTA,-0.212
14,ATTTGACC,-0.0303
15,ATGATATG,0.129
16,GTGCACGA,-0.211
17,GGAGTGAC,0.0735
18,CAGAGAGG,-0.207
19,CCTTCTCG,-0.185
20,ATCACCAC,0.0735
21,ATAAGGGC,-0.0725
22,ACTTAGCG,0.0608
23,AGGCAAAC,-0.158
24,GTCGAACA,0.0922
25,ACTTTGAA,-0.202

row,Sequence,PBM E-score
1,CAGTAGTC,-0.229
2,CACCGCTC,0.0532
3,ACATTCAC,0.05
4,ACGTTAAC,-0.152
5,CGAAGATA,0.129
6,ATTTGATG,-0.0575
7,ACGCTCTG,-0.278
8,CCACCATA,0.0173
9,GTCTCCCA,-0.203
10,ATTGACTA,-0.0725
11,CCAGGGAG,-0.278
12,CTCTTGGA,-0.13
13,GAAATCTC,0.0634
14,GGCCGTCA,-0.0338
15,AGAAGGGG,-0.228
16,CATCCTTA,-0.18
17,CCTGCGCG,0.113
18,CCGCCTCA,0.161
19,ATCATCCG,0.276
20,TCGGCACA,0.194
21,GACGGCCC,-0.0587
22,ACCCGGCT,0.24
